For 92 substances, AlphaScreen luminescence signal results are on record in the supplement of paper PMC12423691.

The other results are listed elsewhere or left out. Binding of human transcription factors and regulators to the viral nucleoprotein by AlphaScreen, crude cell-free proteins, amounts not normalised, one pass. Fold of the Venus control; higher = more signal. No active / inactive call. Single-pass screen; sequences are the whole Swiss-Prot entries looked up by name.

The test relates to nucleoprotein N of Crimean-Congo hemorrhagic fever virus. Kind of test: AlphaScreen luminescence signal relative to Venus negative control (fold); higher = stronger binding to CCHFV N. The protocol:
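AlphaScreen binding of cell-free made, FLAG-GST-tagged human transcription factors and regulators (crude translation products) to biotinylated N protein; signal as fold of the FLAG-GST-Venus control. One pass.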
(In general: Bead proximity is the source of the signal in Alpha formats.)
In turn, ARNT2, Q9HBZ2 gave an AlphaScreen luminescence signal of 1.81.
For the substance E2F4, Q16254, the AlphaScreen luminescence signal is 1.26.
The substance E2F3, O00716 showed an AlphaScreen luminescence signal of 4.37.
Substance EGR4, Q05215 had an AlphaScreen luminescence signal of 3.3.
ZNF761, Q86XN6: the AlphaScreen luminescence signal came to 2.74.
The substance PSMA6, P60900 registered an AlphaScreen luminescence signal of 2.
For the substance TFAP2B, Q92481, the AlphaScreen luminescence signal stood at 3.58.
Substance HCFC1, P51610 yielded an AlphaScreen luminescence signal of 2.19.
Then NFIA, Q12857, with 3.49; and ZNF816, Q0VGE8, with 4.09; and SOX14, O95416, with 2.14.
With SOX4, Q06945, the AlphaScreen luminescence signal amounted to 13.9.
On to PAX7, P23759, for which the AlphaScreen luminescence signal is 2.47.
GFI1, Q99684 showed an AlphaScreen luminescence signal of 2.05.
ZSCAN20, P17040: the AlphaScreen luminescence signal was 1.63.
For ZNF302, Q9NR11, the AlphaScreen luminescence signal turned out to be 2.05.
Then E2F2, Q14209, with 2.09; and ZNF699, Q32M78, with 4.05.
For the substance HOXC8, P31273, the AlphaScreen luminescence signal is 2.74.
The result for MEF2C, Q06413 reads 1.77.
The substance PAX3, P23760 registered an AlphaScreen luminescence signal of 3.58.
Consider ZNF7, P17097, for which the AlphaScreen luminescence signal is 2.51.
Substance TGIF2, Q9GZN2 displayed an AlphaScreen luminescence signal of 2.19.
Take HOXB5, P09067: the AlphaScreen luminescence signal was found to be 8.47.
The substance VSX1, Q9NZR4 yielded an AlphaScreen luminescence signal of 1.86.
HOXA3, O43365: the AlphaScreen luminescence signal was found to be 4.79.
As for ZNF112, Q9UJU3, the AlphaScreen luminescence signal came out at 4.23.
For ZNF354A, O60765, the AlphaScreen luminescence signal was found to be 2.42.
ARNTL, O00327 had an AlphaScreen luminescence signal of 2.65.
The substance HOXA7, P31268 had an AlphaScreen luminescence signal of 3.07.
MSX2, P35548 showed an AlphaScreen luminescence signal of 2.28.
ZNF182, P17025 displayed an AlphaScreen luminescence signal of 5.77.
In turn, ZSCAN12, O43309 gave an AlphaScreen luminescence signal of 1.12.
Consider EAF2, Q96CJ1, for which the AlphaScreen luminescence signal came out at 1.02.
The substance ZNF33A, Q06730 showed an AlphaScreen luminescence signal of 2.65.
Turning to SOX13, Q9UN79, the AlphaScreen luminescence signal came out at 4.93.
In the case of HOXD8, P13378, the AlphaScreen luminescence signal was 1.21.
The substance EGR3, Q06889 returned an AlphaScreen luminescence signal of 5.35.
ZNF829, Q3KNS6: the AlphaScreen luminescence signal came to 1.86.
Then MEOX2, P50222, with 3.49.
Substance KLF6, Q99612 returned an AlphaScreen luminescence signal of 3.21.
In the case of EZH2, Q15910, the AlphaScreen luminescence signal was 2.47.
With HMGN3, Q15651, the AlphaScreen luminescence signal is 13.8.
Substance ZNF85, Q03923 registered an AlphaScreen luminescence signal of 5.12.
Substance ZNF496, Q96IT1 displayed an AlphaScreen luminescence signal of 2.47.
In the case of TFAP2A, P05549, the AlphaScreen luminescence signal amounted to 4.28.
The substance ZNF354B, Q96LW1 showed an AlphaScreen luminescence signal of 3.58.
The substance TFAP2E, Q6VUC0 gave an AlphaScreen luminescence signal of 4.33.
Take NFIC, P08651: the AlphaScreen luminescence signal came to 3.49.
Take NCOA3, Q9Y6Q9: the AlphaScreen luminescence signal was determined as 1.4.
On to PITX2, Q99697, for which the AlphaScreen luminescence signal was 1.72.
The substance ZNF677, Q86XU0 showed an AlphaScreen luminescence signal of 2.51.
For the substance CRX, O43186, the AlphaScreen luminescence signal was determined as 2.7.
Substance KLF13, Q9Y2Y9 gave an AlphaScreen luminescence signal of 5.16.
ZFP82, Q8N141 registered an AlphaScreen luminescence signal of 2.09.
Then RCAN1, P53805, with 2.42; and ZNF461, Q8TAF7, with 2.37; and ZNF607, Q96SK3, with 1.49.
HOXA10, P31260: the AlphaScreen luminescence signal came out at 4.05.
As for ZNF436, Q9C0F3, the AlphaScreen luminescence signal stood at 1.95.
As for KLF3, P57682, the AlphaScreen luminescence signal came to 3.81.
As for PAX9, P55771, the AlphaScreen luminescence signal was found to be 2.19.
In turn, EPAS1, Q99814 displayed an AlphaScreen luminescence signal of 2.05.
In the case of PAX6, P26367, the AlphaScreen luminescence signal was 3.77.
As to HOXB2, P14652, the AlphaScreen luminescence signal was 2.79.
As for ZNF239, Q16600, the AlphaScreen luminescence signal amounted to 2.33.
Then ZNF552, Q9H707, with 2.51; and HOXC4, P09017, with 5.12; and ZNF432, O94892, with 3.63.
CREBBP, Q92793: the AlphaScreen luminescence signal worked out at 1.26.
Regarding HOXB6, P17509, the AlphaScreen luminescence signal is 6.6.
On to ZFP28, Q8NHY6, for which the AlphaScreen luminescence signal came out at 3.16.
The result for ZNF396, Q96N95 reads 1.67; that for ZNF90, Q03938, 2.51; that for TFAP2C, Q92754, 3.53.
Turning to MIXL1, Q9H2W2, the AlphaScreen luminescence signal amounted to 1.12.
The result for ZSCAN16, Q9H4T2 reads 2.6; that for SOX12, O15370, 3.91; that for ZSCAN32, Q9NX65, 1.12.
Substance SP4, Q02446 displayed an AlphaScreen luminescence signal of 1.91.
ZNF780A, O75290: the AlphaScreen luminescence signal was found to be 2.56.
On to ZNF345, Q14585, for which the AlphaScreen luminescence signal worked out at 1.58.
For the substance HOXA2, O43364, the AlphaScreen luminescence signal amounted to 3.16.
Take ZNF254, O75437: the AlphaScreen luminescence signal came to 5.3.
Substance ZKSCAN5, Q9Y2L8 displayed an AlphaScreen luminescence signal of 1.91.
Substance ZFP14, Q9HCL3 gave an AlphaScreen luminescence signal of 2.7.
As for HOXA5, P20719, the AlphaScreen luminescence signal was 19.
Substance ISX, Q2M1V0 returned an AlphaScreen luminescence signal of 1.72.
Turning to MYB, P10242, the AlphaScreen luminescence signal is 2.47.
For ZFP30, Q9Y2G7, the AlphaScreen luminescence signal was 2.6.
For MTF1, Q14872, the AlphaScreen luminescence signal came out at 1.26.
MAFF, Q9ULX9: the AlphaScreen luminescence signal stood at 2.56.
